The other results are listed elsewhere or left out.
Tests used:
Assay in all cases: glycan array binding signal (z-score within array); higher = stronger binding
Settings in all cases: glycan notation: IUPAC condensed, linker removed
GalNAc3S(b1-4)GlcNAc = target: GalNAc3S(b1-4)GlcNAc
How it was run: (§1)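 Negative Z-scores can be read as non-binding. The Z-score is calculated within each array and then averaged across arrays of one protein sequence at different concentrations or buffers and across linkers. Arrays, 3228 in all, were curated from the Consortium for Functional Glycomics database and kept only where the protein sequence was available.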

GalNAc3S(b1-4)GlcNAc3S = target: GalNAc3S(b1-4)GlcNAc3S
How it was run: as §1

[1] = target: GalNAc3S(b1-4)[Fuc(a1-3)]GlcNAc
How it was run: as §1

GalNAc4S6S(b1-4)GlcNAc = target: GalNAc4S6S(b1-4)GlcNAc
How it was run: as §1

GalNAc6S(b1-4)GlcNAc = target: GalNAc6S(b1-4)GlcNAc
How it was run: as §1

Glc(a1-4)Glc = target: Glc(a1-4)Glc
How it was run: as §1

[2] = target: Glc(a1-4)Glc(a1-4)Glc(a1-4)Glc
How it was run: as §1

Glc(a1-6)Glc(a1-6)Glc = target: Glc(a1-6)Glc(a1-6)Glc
How it was run: as §1

[3] = target: Glc(a1-6)Glc(a1-6)Glc(a1-6)Glc
How it was run: as §1

Glc(b1-4)Glc = target: Glc(b1-4)Glc
How it was run: as §1

Glc(b1-6)Glc = target: Glc(b1-6)Glc
How it was run: as §1

GlcA(b1-3)Gal = target: GlcA(b1-3)Gal
How it was run: as §1

GlcA(b1-3)GlcNAc = target: GlcA(b1-3)GlcNAc
How it was run: as §1

GlcA(b1-6)Gal = target: GlcA(b1-6)Gal
How it was run: as §1

[4] = target: GlcA3S(b1-3)Gal(b1-4)GlcNAc(b1-2)Man
How it was run: as §1

[5] = target: GlcA3S(b1-3)Gal(b1-4)GlcNAc(b1-3)Gal(b1-4)Glc
How it was run: as §1

[6] = target: GlcNAc(a1-3)Gal(b1-4)GlcNAc
How it was run: as §1

[7] = target: GlcNAc(a1-4)Gal(b1-3)GlcNAc
How it was run: as §1

[8] = target: GlcNAc(a1-4)Gal(b1-4)GalNAc
How it was run: as §1

[9] = target: GlcNAc(a1-4)Gal(b1-4)GlcNAc
How it was run: as §1

[10] = target: GlcNAc(a1-4)Gal(b1-4)GlcNAc(b1-3)Gal(b1-4)Glc
How it was run: as §1

[11] = target: GlcNAc(a1-4)Gal(b1-4)GlcNAc(b1-3)Gal(b1-4)GlcNAc
How it was run: as §1

[12] = target: GlcNAc(a1-4)Gal(b1-4)GlcNAc(b1-3)Gal(b1-4)GlcNAc(b1-3)Gal(b1-4)GlcNAc
How it was run: as §1

[13] = target: GlcNAc(a1-4)Gal(b1-4)GlcNAc(b1-3)Gal(b1-4)[Fuc(a1-3)]GlcNAc(b1-3)Gal(b1-4)[Fuc(a1-3)]GlcNAc
How it was run: as §1

[14] = target: GlcNAc(a1-6)Gal(b1-4)GlcNAc
How it was run: as §1

[15] = target: GlcNAc(b1-2)Gal(b1-3)GalNAc
How it was run: as §1

[16] = target: GlcNAc(b1-2)Man(a1-3)[GlcNAc(b1-2)Man(a1-6)]Man(b1-4)GlcNAc(b1-4)GlcNAc
How it was run: as §1

[17] = target: GlcNAc(b1-2)Man(a1-3)[GlcNAc(b1-2)Man(a1-6)]Man(b1-4)GlcNAc(b1-4)[Fuc(a1-6)]GlcNAc
How it was run: as §1

[18] = target: GlcNAc(b1-2)Man(a1-3)[GlcNAc(b1-4)][GlcNAc(b1-2)Man(a1-6)]Man(b1-4)GlcNAc(b1-4)GlcNAc
How it was run: as §1

[19] = target: GlcNAc(b1-2)Man(a1-3)[GlcNAc(b1-4)][GlcNAc(b1-2)Man(a1-6)]Man(b1-4)GlcNAc(b1-4)[Fuc(a1-6)]GlcNAc
How it was run: as §1

[20] = target: GlcNAc(b1-2)[GlcNAc(b1-4)]Man(a1-3)[GlcNAc(b1-2)Man(a1-6)]Man(b1-4)GlcNAc(b1-4)GlcNAc
How it was run: as §1

[21] = target: GlcNAc(b1-2)[GlcNAc(b1-4)]Man(a1-3)[GlcNAc(b1-4)][GlcNAc(b1-2)Man(a1-6)]Man(b1-4)GlcNAc(b1-4)GlcNAc
How it was run: as §1

[22] = target: GlcNAc(b1-2)[GlcNAc(b1-4)]Man(a1-3)[GlcNAc(b1-4)][GlcNAc(b1-2)[GlcNAc(b1-6)]Man(a1-6)]Man(b1-4)GlcNAc(b1-4)GlcNAc
How it was run: as §1

[23] = target: GlcNAc(b1-2)[GlcNAc(b1-4)]Man(a1-3)[GlcNAc(b1-4)][GlcNAc(b1-2)[GlcNAc(b1-6)]Man(a1-6)]Man(b1-4)GlcNAc(b1-4)[Fuc(a1-6)]GlcNAc
How it was run: as §1

[24] = target: GlcNAc(b1-2)[GlcNAc(b1-6)]Man(a1-6)[GlcNAc(b1-2)Man(a1-3)]Man(b1-4)GlcNAc(b1-4)GlcNAc
How it was run: as §1

[25] = target: GlcNAc(b1-2)[GlcNAc(b1-6)]Man(a1-6)[GlcNAc(b1-2)Man(a1-3)]Man(b1-4)GlcNAc(b1-4)[Fuc(a1-6)]GlcNAc
How it was run: as §1

[26] = target: GlcNAc(b1-2)[GlcNAc(b1-6)]Man(a1-6)[GlcNAc(b1-4)][GlcNAc(b1-2)Man(a1-3)]Man(b1-4)GlcNAc(b1-4)GlcNAc
How it was run: as §1

GlcNAc(b1-3)Fuc = target: GlcNAc(b1-3)Fuc
How it was run: as §1

GlcNAc(b1-3)Gal = target: GlcNAc(b1-3)Gal
How it was run: as §1

[27] = target: GlcNAc(b1-3)Gal(b1-3)GalNAc
How it was run: as §1

GlcNAc(b1-3)Gal(b1-4)Glc = target: GlcNAc(b1-3)Gal(b1-4)Glc
How it was run: as §1

[28] = target: GlcNAc(b1-3)Gal(b1-4)GlcNAc
How it was run: as §1

[29] = target: GlcNAc(b1-3)Gal(b1-4)GlcNAc(b1-2)Man(a1-3)[GlcNAc(b1-3)Gal(b1-4)GlcNAc(b1-2)Man(a1-6)]Man(b1-4)GlcNAc(b1-4)GlcNAc
How it was run: as §1

[30] = target: GlcNAc(b1-3)Gal(b1-4)GlcNAc(b1-2)Man(a1-3)[GlcNAc(b1-3)Gal(b1-4)GlcNAc(b1-2)Man(a1-6)]Man(b1-4)GlcNAc(b1-4)[Fuc(a1-6)]GlcNAc
How it was run: as §1

[31] = target: GlcNAc(b1-3)Gal(b1-4)GlcNAc(b1-2)[GlcNAc(b1-3)Gal(b1-4)GlcNAc(b1-6)]Man(a1-6)[GlcNAc(b1-3)Gal(b1-4)GlcNAc(b1-2)Man(a1-3)]Man(b1-4)GlcNAc(b1-4)GlcNAc
How it was run: as §1

B1: Jacalin (Artocarpus integrifolia) (protein)
chain: MAYSSLLSLSVLALLFSISSADTRKWFLANGINQNPIGIIEAAVGVSEDLLNLNGMEAKNDEQSGISQTVIVGPWGAKVSTSSNGKAFDDGAFTGIREINLSYNKETAIGDFQVVYDLNGSPYVGQNHKSFITGFTPVKISLDFPSEYIMEVSGYTGNVSGYVVVRSLTFKTNKKTYGPYGVTSGTPFNLPIENGLIVGFKGSIGYWLDYFSMYLSL
GalNAc3S(b1-4)GlcNAc
  glycan array binding signal (z-score): -0.268
GalNAc3S(b1-4)GlcNAc3S
  glycan array binding signal (z-score): -0.28
[1]
  glycan array binding signal (z-score): -0.278
GalNAc4S6S(b1-4)GlcNAc
  glycan array binding signal (z-score): -0.291
GalNAc6S(b1-4)GlcNAc
  glycan array binding signal (z-score): -0.28
Glc(a1-4)Glc
  glycan array binding signal (z-score): -0.236
[2]
  glycan array binding signal (z-score): -0.249
Glc(a1-6)Glc(a1-6)Glc
  glycan array binding signal (z-score): -0.273
[3]
  glycan array binding signal (z-score): -0.244
Glc(b1-4)Glc
  glycan array binding signal (z-score): -0.246
Glc(b1-6)Glc
  glycan array binding signal (z-score): -0.271
GlcA(b1-3)Gal
  glycan array binding signal (z-score): -0.264
GlcA(b1-3)GlcNAc
  glycan array binding signal (z-score): -0.28
GlcA(b1-6)Gal
  glycan array binding signal (z-score): -0.271
[4]
  glycan array binding signal (z-score): -0.262
[5]
  glycan array binding signal (z-score): -0.268
[6]
  glycan array binding signal (z-score): 1.26
[7]
  glycan array binding signal (z-score): 0.435
[8]
  glycan array binding signal (z-score): 0.625
[9]
  glycan array binding signal (z-score): 1.08
[10]
  glycan array binding signal (z-score): 1.73
[11]
  glycan array binding signal (z-score): 2.04
[12]
  glycan array binding signal (z-score): 2.63
[13]
  glycan array binding signal (z-score): 0.679
[14]
  glycan array binding signal (z-score): 1.29
[15]
  glycan array binding signal (z-score): 2.21
[16]
  glycan array binding signal (z-score): 0.143
[17]
  glycan array binding signal (z-score): 0.257
[18]
  glycan array binding signal (z-score): -0.094
[19]
  glycan array binding signal (z-score): -0.162
[20]
  glycan array binding signal (z-score): 1.34
[21]
  glycan array binding signal (z-score): 1.04
[22]
  glycan array binding signal (z-score): 1.01
[23]
  glycan array binding signal (z-score): 1.82
[24]
  glycan array binding signal (z-score): 0.358
[25]
  glycan array binding signal (z-score): 0.94
[26]
  glycan array binding signal (z-score): 0.105
GlcNAc(b1-3)Fuc
  glycan array binding signal (z-score): 0.365
GlcNAc(b1-3)Gal
  glycan array binding signal (z-score): 0.629
[27]
  glycan array binding signal (z-score): 1.49
GlcNAc(b1-3)Gal(b1-4)Glc
  glycan array binding signal (z-score): -0.123
[28]
  glycan array binding signal (z-score): 0.111
[29]
  glycan array binding signal (z-score): 1.57
[30]
  glycan array binding signal (z-score): 1.4
[31]
  glycan array binding signal (z-score): 1.55

From the supplement of paper PMC8728848
